{
  "source": "paper PMC4336329",
  "about": "(PLoS ONE, 2015)",
  "note": "The whole screen tested about 310,000 compounds, of which about 14,000 (4.5%) showed an effect of 50% or more. Effects have a minus sign here. This is one part of the list.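 Note: peak tail current of the secondary pulse compared with the same well before compound.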",
  "data": [
    {"target": "human ether-à-go-go-related gene (hERG) potassium channel (human, UniProt Q12809)", "sequence (Q12809 whole entry, looked up)": "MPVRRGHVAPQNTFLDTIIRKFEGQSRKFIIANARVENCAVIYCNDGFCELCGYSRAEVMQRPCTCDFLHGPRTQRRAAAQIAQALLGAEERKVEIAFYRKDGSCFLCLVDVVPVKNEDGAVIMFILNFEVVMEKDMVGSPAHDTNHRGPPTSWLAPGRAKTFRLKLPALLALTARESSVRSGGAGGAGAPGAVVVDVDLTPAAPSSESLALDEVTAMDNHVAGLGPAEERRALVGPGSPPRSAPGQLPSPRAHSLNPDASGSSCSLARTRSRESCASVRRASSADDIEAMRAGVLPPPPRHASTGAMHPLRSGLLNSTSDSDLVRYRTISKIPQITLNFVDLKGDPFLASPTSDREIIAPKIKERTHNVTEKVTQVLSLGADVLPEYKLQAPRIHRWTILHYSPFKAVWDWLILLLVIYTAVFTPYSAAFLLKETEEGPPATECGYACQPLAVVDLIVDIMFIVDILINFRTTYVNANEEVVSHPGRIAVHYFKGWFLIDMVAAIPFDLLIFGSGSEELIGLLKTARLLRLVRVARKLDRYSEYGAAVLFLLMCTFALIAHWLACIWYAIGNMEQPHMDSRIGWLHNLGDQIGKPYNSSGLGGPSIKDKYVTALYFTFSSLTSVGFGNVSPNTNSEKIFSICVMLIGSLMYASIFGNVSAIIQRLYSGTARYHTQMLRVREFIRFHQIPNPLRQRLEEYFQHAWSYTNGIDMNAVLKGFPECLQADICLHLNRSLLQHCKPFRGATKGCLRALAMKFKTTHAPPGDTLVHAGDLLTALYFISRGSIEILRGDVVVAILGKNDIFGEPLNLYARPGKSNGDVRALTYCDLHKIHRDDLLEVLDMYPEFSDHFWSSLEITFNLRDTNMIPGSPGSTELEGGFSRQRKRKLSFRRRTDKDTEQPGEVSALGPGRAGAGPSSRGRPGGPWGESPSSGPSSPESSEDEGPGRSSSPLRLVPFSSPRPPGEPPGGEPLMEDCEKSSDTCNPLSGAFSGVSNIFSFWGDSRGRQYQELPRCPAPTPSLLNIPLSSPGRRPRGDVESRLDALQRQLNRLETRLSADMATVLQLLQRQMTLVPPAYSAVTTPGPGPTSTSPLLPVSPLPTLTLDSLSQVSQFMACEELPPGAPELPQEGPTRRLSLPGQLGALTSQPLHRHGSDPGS", "experiment": "primary screen, population patch clamp on CHO cells stably expressing hERG", "units": {"hERG current change (%, negative = inhibition) at 10uM": "%"}, "values": [
      {"smiles": "COc1ccc(CCNC(=O)C/C(C)=N/NC(=O)C23CC4CC(CC(C4)C2)C3)cc1OC", "hERG current change (%, negative = inhibition) at 10uM": 11.7},
      {"smiles": "N#C/C(=C\\c1c[nH]c2ccccc12)C(=O)Nc1ncc(Cc2ccc(Cl)cc2Cl)s1", "hERG current change (%, negative = inhibition) at 10uM": 14.5},
      {"smiles": "Cc1ccc(N2CCN(C(=O)c3cccs3)CC2)c(C)c1", "hERG current change (%, negative = inhibition) at 10uM": -10.6},
      {"smiles": "CCOC(=O)CSC1=C(C#N)C(c2ccc(C)cc2)C(C(=O)OC)C(=O)N1", "note": "(centres unmarked)", "hERG current change (%, negative = inhibition) at 10uM": -4.56},
      {"smiles": "CCOc1ccc(NS(=O)(=O)c2ccc(C(=O)NCC(c3cccs3)N3CCOCC3)cc2)cc1", "note": "(centres unmarked)", "hERG current change (%, negative = inhibition) at 10uM": -24.4},
      {"smiles": "CC(C)COP(=O)(c1ccc(N(C)C)cc1)C(Nc1ccccc1)c1cccnc1", "note": "(centres unmarked)", "hERG current change (%, negative = inhibition) at 10uM": -30.3},
      {"smiles": "O=C(NC1CCCCC1)Oc1cc2oc(=O)sc2cc1Br", "hERG current change (%, negative = inhibition) at 10uM": 13.9},
      {"smiles": "Cc1ccc(F)cc1NC(=O)c1c(-c2ccccc2)noc1C", "hERG current change (%, negative = inhibition) at 10uM": -3.67},
      {"smiles": "O=C(Nc1ccc(S(=O)(=O)N2CCCCCC2)cc1)c1c(F)cccc1F", "hERG current change (%, negative = inhibition) at 10uM": 12.3},
      {"smiles": "N#Cc1ccccc1N=Cc1ccc(Br)cc1", "hERG current change (%, negative = inhibition) at 10uM": 1.64},
      {"smiles": "CN1CCCc2cc(C#N)c(=O)[nH]c21", "hERG current change (%, negative = inhibition) at 10uM": -16.2},
      {"smiles": "Cc1ccc(Cl)cc1NC(=O)NCc1ccccn1", "hERG current change (%, negative = inhibition) at 10uM": 5.36},
      {"smiles": "Cc1cccc(NC(=O)CSc2nnc(-c3n[nH]c4ccccc34)o2)c1", "hERG current change (%, negative = inhibition) at 10uM": 16},
      {"smiles": "Cn1c(=O)c(NCCc2ccccc2)c2c3c(cccc31)C(=O)c1ccccc1-2", "hERG current change (%, negative = inhibition) at 10uM": -0.0383},
      {"smiles": "Cc1ccc(S(=O)(=O)NCc2ccc(C(=O)NCc3cccnc3)cc2)cc1", "hERG current change (%, negative = inhibition) at 10uM": -5.09},
      {"smiles": "COC(=O)COc1cccc(NS(=O)(=O)c2cccc([N+](=O)[O-])c2)c1", "hERG current change (%, negative = inhibition) at 10uM": 22},
      {"smiles": "CCCCNC(=O)NNC(=O)c1cc(C)on1", "hERG current change (%, negative = inhibition) at 10uM": 2.93},
      {"smiles": "CC1CCCC(NC(=O)COC(=O)c2ccccc2Sc2ccccc2C#N)C1C", "note": "(centres unmarked)", "hERG current change (%, negative = inhibition) at 10uM": -0.899},
      {"smiles": "CCn1c(-c2nn(C)cc2Cl)n[nH]c1=S", "hERG current change (%, negative = inhibition) at 10uM": 17.9},
      {"smiles": "CCCCc1ccc(S(=O)(=O)NCCc2ccncc2)cc1", "hERG current change (%, negative = inhibition) at 10uM": -24.3},
      {"smiles": "Cc1ccc(OCC(=O)N(Cc2ccc(N(C)C)cc2)C2CCS(=O)(=O)C2)cc1", "note": "(centres unmarked)", "hERG current change (%, negative = inhibition) at 10uM": -31.8},
      {"smiles": "COc1ccc(NC(=O)Nc2ccc(C(C)C)cc2)cc1", "hERG current change (%, negative = inhibition) at 10uM": 7.23},
      {"smiles": "CCN/C=C(\\C#N)S(=O)(=O)c1ccc(Br)cc1", "hERG current change (%, negative = inhibition) at 10uM": -14.5},
      {"smiles": "CCC(C)[C@H](N)c1nnc(SCC(=O)c2ccc(Cl)cc2)o1", "note": "(some centres unmarked)", "hERG current change (%, negative = inhibition) at 10uM": -52.5},
      {"smiles": "Cc1cc(NC(=O)c2cncc(Br)c2)ccc1NC(=O)c1cc2ccccc2o1", "hERG current change (%, negative = inhibition) at 10uM": 9.39},
      {"smiles": "CN(C)P(=NC(=O)COc1ccc(Cl)cc1Cl)(N(C)C)N(C)C", "hERG current change (%, negative = inhibition) at 10uM": -2.49},
      {"smiles": "COC(=O)C(C)(C)ONC(=O)Nc1ccccc1[N+](=O)[O-]", "hERG current change (%, negative = inhibition) at 10uM": 2.07},
      {"smiles": "Cc1ccc(Cl)cc1Nc1nc(-c2cccnc2)cs1", "hERG current change (%, negative = inhibition) at 10uM": 25.6},
      {"smiles": "Cc1ccc(S(C)(=O)=NC(=O)c2cc(C)on2)cc1", "note": "(centres unmarked)", "hERG current change (%, negative = inhibition) at 10uM": 14.7},
      {"smiles": "O=C(CNc1ccc(Br)cc1)Nc1cccc(S(=O)(=O)N2CCCC2)c1", "hERG current change (%, negative = inhibition) at 10uM": -21.5},
      {"smiles": "COc1ccc(S(=O)(=O)Cc2ccc(C(=O)N3CCN(c4ccccc4)CC3)o2)cc1", "hERG current change (%, negative = inhibition) at 10uM": -37.6},
      {"smiles": "Cn1c(=O)n(CCc2ccccc2)c(=O)c2c1nc1n2CCCN1Cc1ccccc1", "hERG current change (%, negative = inhibition) at 10uM": 11.1},
      {"smiles": "COC(=O)Cn1c2nc3ccccc3nc2c2cccc(C)c21", "hERG current change (%, negative = inhibition) at 10uM": 9.86},
      {"smiles": "O=C1c2ccccc2-c2onc3ccc(NCCCn4ccnc4)c1c23", "hERG current change (%, negative = inhibition) at 10uM": -31.7},
      {"smiles": "COc1ccc(OC)c(S(=O)(=O)N2CCCC(C(=O)NCc3ccncc3)C2)c1", "note": "(centres unmarked)", "hERG current change (%, negative = inhibition) at 10uM": 20.4},
      {"smiles": "CCc1cc2c(-c3ccccc3)cc(=O)oc2c(CN2CCOCC2)c1O", "hERG current change (%, negative = inhibition) at 10uM": 0.162},
      {"smiles": "CCN(CC)S(=O)(=O)c1ccc2nnn(OCC(=O)Nc3cccc(C#N)c3)c2c1", "hERG current change (%, negative = inhibition) at 10uM": -16.9},
      {"smiles": "O=C(O)CCCNS(=O)(=O)c1ccc(Br)s1", "hERG current change (%, negative = inhibition) at 10uM": -3.2},
      {"smiles": "Cc1ncc(C23CC4CC(CC(C4)C2)C3)[nH]1", "hERG current change (%, negative = inhibition) at 10uM": -9.96},
      {"smiles": "Cc1ccc(S(=O)(=O)NCCNC(=O)c2cc(OCC(F)(F)F)ccc2OCC(F)(F)F)cc1", "hERG current change (%, negative = inhibition) at 10uM": 7.92},
      {"smiles": "Cc1c(CC(=O)N2CCN(C(=O)C3COc4ccccc4O3)CC2)c(=O)oc2c(C)c(O)ccc12", "note": "(centres unmarked)", "hERG current change (%, negative = inhibition) at 10uM": -20},
      {"smiles": "CCOc1ccc(C(=O)/C=C/Nc2ccc(S(=O)(=O)N=C(N)N)cc2)cc1", "hERG current change (%, negative = inhibition) at 10uM": 14.9},
      {"smiles": "CCOc1ccc(NC(=S)N2CCC(NC(=O)c3ccco3)CC2)cc1", "hERG current change (%, negative = inhibition) at 10uM": -31.6},
      {"smiles": "O=C(Nc1ccccc1C(=O)NCCCn1ccnc1)c1ccc(Cl)cc1Cl", "hERG current change (%, negative = inhibition) at 10uM": -47.1}
    ]}
  ]
}
